Source: PubChem BioAssay AID1918948 (Molecular Pharmacology Branch, DTP, NCI, 2023)
Certain results were filed several times, with different values. The list is limited to them. There may be further records. Values given together are repeats (runs, samples, wells, individuals or studies). Dates in brackets are months of testing.

System: K-562 leukemia growth, % test/control
Test: Anticancer human tumor K-562 cell line growth inhibition;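 also: spheroids exposed to compounds for 7 days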;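 as to viability, T/C: 100% = DMSO vehicle wells and lower values mean fewer viable cells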
Conditions: spheroids with HUVEC and MSC; for viability, T/C: stronger effect = lower value
Excerpt: Multicellular complex tumor spheroid response to LSD1 Inhibitor Iadademstat in combination with a variety of drugs and investigational agents in selected tumor cell lines
The current study was undertaken to assess response to LSD1 inhibitors in combination with standard-of-care drugs and investigational agents in solid tumor complex spheroid models as well as in the K-562 leukemia. Complex spheroids include a stromal component modeled by human endothelial cells (HUVEC) and fibroblasts modeled by human mesenchymal stem cells (MSCs). The concentration ranges selected for each drug and investigational agent were based upon clinically achievable concentrations if the clinical Cmax of the agent was known.
Compounds. The drugs and investigational agents used in this study are listed on Table 1. All of the agents used, including staurosporine (NSC755774) and gemcitabine (NSC613327), were obtained from the Developmental Therapeutics Program, NCI. FDA-approved anticancer drugs are available from the NCI at http://dtp.nci.nih.gov/branches/dscb/oncology_drugset_explanation.html. Drugs and investigational agents were >95% pure by proton nuclear magnetic resonance (NMR) and liquid chromatography/mass spectrometry (LC/MS). Stock solutions were prepared at 400x in DMSO, stored at -70 degrees C, and diluted in fresh medium prior to their use. The final concentration of DMSO in cell culture wells never exceeded 0.25% (v/v). The FDA-approved anticancer drug set is available from the Developmental Therapeutics Program at https://dtp.cancer.gov/organization/dscb/obtaining/available_plates.htm. All drugs and investigational agents were tested over a range starting from a high concentration at or near the clinical Cmax and decreasing in half-log increments. If the clinical Cmax for an agent had not been determined, the highest concentration tested was 10 microM.
Cell Lines. The patient-derived cancer cell (PDC) lines: 292921-168-R-J2-PDC, K24384-001-R-PDC, and 521955-158-R2-J5-PDC pancreatic carcinomas, 556581-035-R-J1 ovarian carcinoma, 324938-238-R-J1-PDC, 855422-203-R-J1-PDC and 883617-216-R-J1-PDC urothelial bladder carcinomas, 743489-274-T-PDC renal cell carcinoma, 138582-R-J1 Merkel cell tumor, K60290-347-R-J1 and K57222-313-R-J1-PDC glioblastomas, 653999-131-R-J2-PDC, LG0703-F948-PDC, and 349418-098-R-PDC non-small cell lung carcinomas, 885512-296-R-J2-PDC, 171881-019-R-J1-PDC breast carcinomas and 186277-243-T-J2-PDC and 233499-124-R-J2-PDC colon carcinomas were obtained from the NCI Patient-Derived Models Repository (PDMR, https://pdmr.cancer.gov). The established cell lines NCI/ADR-RES (RRID:CVCL_14520 and OVCAR-5 (RRID:CVCL_1628) ovarian carcinomas, 786-O (RRID:CVCL_1051) and A498 (RRID:CVCL_A498) renal cell carcinoma, NCI-H211 (ATCC, cat. CRL-5824; RRID:CVCL_1529), NCI-H196 (ATCC, cat. CRL-5823, RRID:CVCL_1509), SW 1271 (ATCC, cat. CRL-2177, RRID:CVCL_1716) and NCI-H1876 (ATCC, cat. CRL-5902, RRID:CVCL_1503) small cell lung carcinomas, MDA-MB-231 (RRID:CVCL_0062) and MDA-MB-468 (RRID:CVCL_0419)breast carcinomas (10-12). Pooled donor human umbilical vein endothelial cells (HUVEC, Lonza, cat. CC-2519) and human mesenchymal stem cells (hMSC, Lonza, cat. PT-2501) were purchased from Lonza (Walkersville, MD).
Cell Culture. All cells were maintained in an incubator at 37 degrees C and 5% CO2 with 95% humidity. The PDC lines were cultured according to standard operating procedures established by the NCI PDMR (https://pdmr.cancer.gov). […]

`CC1(C)CCC(CN2CCN(c3ccc(C(=O)NS(=O)(=O)c4ccc(NCC5CCOCC5)c([N+](=O)[O-])c4)c(Oc4cnc5[nH]ccc5c4)c3)CC2)=C(c2ccc(Cl)cc2)C1` was tested. Which viability, T/C (compound alone 10 µM) did it give?
Its viability, T/C is 31.4% [2022-01] and 2.13% [2022-02].

How did the viability, T/C (compound alone 3 µM) turn out when `O=C(C=Cc1cccc(S(=O)(=O)Nc2ccccc2)c1)NO` was run?
Its viability, T/C is 0.15% [2022-01] and 106% [2022-02].

`Nc1ccn(C2OC(CO)C(O)C2(F)F)c(=O)n1` (stereo not given) was tested. Which IC50 (compound alone) did it give?
Its IC50 is < 0.949 nM [2022-01] and 9.99 nM [2022-02].

With `COc1cc(Nc2ncc3c(n2)-c2ccc(Cl)cc2C(c2c(F)cccc2OC)=NC3)ccc1C(=O)O` as the compound, how does the viability, T/C (compound alone 1 µM) read?
The viability, T/C was 35.1% [2022-01] and 3.37% [2022-02].

Which viability, T/C (compound alone 0.001 µM) does the source give for `CC(C)CC(NC(=O)C(Cc1ccccc1)NC(=O)c1cnccn1)B(O)O` (stereo not given) here?
The viability, T/C was 97% [2022-01] and 4.62% [2022-02].
